Measured values as given in PubChem BioAssay (NCATS).
This list was built around the results that the source calls inconclusive (neither active nor inactive); the mix of calls is not that of the screen. For part of these data: Where the call is inconclusive, the potency comes from a doubtful curve fit. Activity calls are given as the source filed them. Unless noted, the call rests on the fitted dose curve; in most records, active means well fitted curve in either direction with a large enough effect (not every such curve was filed as active); inconclusive means small, poorly fitted or top-dose-only effect, or another doubt; inactive means flat fitted curve, though single readings scatter.

Tests used:
[1] = AP1 Signaling Pathway (AID 357); settings: ME-180 AP-1-bla reporter, EGF-induced, beta-lactamase ratio, 5 h; at 17.2 µM (top of the series) unless noted;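 further: ME-180 reporter cells stimulated with EGF at its EC50 level; top concentration of the series differs between compounds; on the % scale 0 is the no-effect control and ±100 the full control effect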
Procedure, shortened: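 Beta-lactamase reporter under AP-1 response element, ME-180 background. Stimulus: EC50 EGF. Compound exposure 5 h, 37 °C. Detection: CCF4, 2.5 h RT, 460/530 nm. Values: AC50 from titration.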

[2] = NFAT Signaling Pathway (AID 444); settings: Jurkat NFAT-bla M1, carbachol, beta-lactamase ratio, 5 h; at 17.2 µM (top of the series) unless noted;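 further: carbachol stimulus at about its EC50 of 1 µM final; on the % scale 0 is the no-effect control and ±100 the full control effect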
Procedure, shortened: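 Jurkat cells with NFAT-driven β-lactamase reporter and co-expressed M1 receptor, stimulated with carbachol (final 1 uM, ~EC50), compound titration, 5 h at 37 °C. CCF4 loaded 1 h at RT; 460/530 nm ratio gave %activity and AC50.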

[3] = biological target: Mitogen-activated protein kinase 10 (Mus musculus) (UniProt Q61831); experiment: JNK3 AlphaScreen Assay (AID 530); settings: JNK3 lysate, c-Jun phosphorylation; activity change, negative = inhibition: at 57.1 µM (top of the series);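 further: kinase came from lysate of stimulated human HepG2 cells; signal reports phosphorylation of biotinylated GST-cJun 1-79 at Ser73 with 10 µM ATP; potency means the concentration at half of the fitted maximal effect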
Procedure, shortened: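 Activity was read by AlphaScreen after JNK3-containing HepG2 lysate (cytokine pre-activated) phosphorylated biotinylated GST-cJun with 10 uM ATP at room temperature. Phospho-Ser73 cJun antibody with Protein-A acceptor beads provided detection.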

[4] = qHTS Assay for Identification of Small Molecule Agonists for Hypoxia Response Element Signaling Pathway (AID 914; active means well fitted activation curve with a large enough effect in the signal ratio, with a control signal flat, not every such curve was filed as active; inconclusive means small, poorly fitted or top-dose-only effect, or effect the other way, or a change in a side signal; the % refers to the signal ratio; further: top concentration of the series differs between compounds; % of control where 0% means no effect); settings: ME-180 (cervical carcinoma) HRE-bla reporter, beta-lactamase ratio, CoCl2, 17 h; activation: active compounds read high
Procedure, shortened: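 Reporter activity (beta-lactamase, CCF4 460nm/530nm ratio) in HRE-bla ME-180 cells is recorded after 17 h compound exposure with EC50 CoCl2 at 37 degrees Celsius. AC50 values come from titration data.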

[5] = biological target: Ubiquitin carboxyl-terminal hydrolase 1 (Homo sapiens) (UniProt O94782); experiment: Inhibitors of USP1/UAF1: Pilot qHTS (AID 504865; active means well fitted curve in the direction sought with a large enough effect; inconclusive means small, poorly fitted or top-dose-only effect, or another doubt; inactive means no such curve, though single readings can be large; an effect the other way counts as inactive or inconclusive;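 further: rhodamine fluorescence freed from ubiquitin-rhodamine substrate followed over time; potency means the concentration at half of the fitted maximal effect; nearly all actives have a fitted effect of over 35% in size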)
Sequence of UniProt O94782 (O94782 whole entry, looked up): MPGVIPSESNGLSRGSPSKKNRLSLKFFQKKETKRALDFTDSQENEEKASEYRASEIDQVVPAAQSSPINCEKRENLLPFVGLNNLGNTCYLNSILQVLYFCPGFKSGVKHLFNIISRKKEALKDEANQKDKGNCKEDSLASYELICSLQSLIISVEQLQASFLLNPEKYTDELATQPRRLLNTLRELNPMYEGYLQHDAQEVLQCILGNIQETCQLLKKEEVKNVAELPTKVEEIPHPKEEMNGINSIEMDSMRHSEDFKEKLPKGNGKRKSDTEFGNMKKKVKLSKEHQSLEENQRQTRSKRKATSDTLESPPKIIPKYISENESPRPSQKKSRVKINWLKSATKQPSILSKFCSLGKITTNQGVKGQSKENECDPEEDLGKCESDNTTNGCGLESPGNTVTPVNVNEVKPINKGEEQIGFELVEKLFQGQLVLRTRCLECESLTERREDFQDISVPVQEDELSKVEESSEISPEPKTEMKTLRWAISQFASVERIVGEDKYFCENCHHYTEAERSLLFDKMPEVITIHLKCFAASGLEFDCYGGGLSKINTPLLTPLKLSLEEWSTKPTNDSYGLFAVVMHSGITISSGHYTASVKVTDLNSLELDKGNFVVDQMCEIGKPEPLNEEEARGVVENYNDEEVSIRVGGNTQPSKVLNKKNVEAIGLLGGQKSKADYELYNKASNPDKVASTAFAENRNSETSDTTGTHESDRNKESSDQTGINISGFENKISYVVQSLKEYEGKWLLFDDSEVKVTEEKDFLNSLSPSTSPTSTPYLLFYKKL
Procedure, shortened: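 1nM USP1/UAF1 + cpd, 15 min RT; start w/ Ub-Rho 150nM final; kinetic FL 480/540 nm, 6 reads q60 s. Buffer 50mM HEPES pH 7.8, 0.5mM EDTA, 1mM TCEP, 0.01% Tween-20, 0.1 mg/ml BSA.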

[6] = biological target: 3',5'-cyclic-AMP phosphodiesterase 4B (Homo sapiens) (UniProt Q07343); experiment: qHTS Assay for Inhibitors of PDE-IV (AID 607; active means well fitted activation curve with a large enough effect in the main read-out, with a control signal flat, not every such curve was filed as active; inconclusive means small, poorly fitted or top-dose-only effect, or effect the other way, or a change in a side signal; further: potency means the concentration at half of the fitted maximal effect; on activation (PDE inhibition): % of control where 0% means no effect); settings: HEK293 ACTOne CNG channel cells, membrane potential fluorescence; activation (PDE inhibition): at 22.9 µM (top of the series)
Sequence of UniProt Q07343 (Q07343 whole entry, looked up): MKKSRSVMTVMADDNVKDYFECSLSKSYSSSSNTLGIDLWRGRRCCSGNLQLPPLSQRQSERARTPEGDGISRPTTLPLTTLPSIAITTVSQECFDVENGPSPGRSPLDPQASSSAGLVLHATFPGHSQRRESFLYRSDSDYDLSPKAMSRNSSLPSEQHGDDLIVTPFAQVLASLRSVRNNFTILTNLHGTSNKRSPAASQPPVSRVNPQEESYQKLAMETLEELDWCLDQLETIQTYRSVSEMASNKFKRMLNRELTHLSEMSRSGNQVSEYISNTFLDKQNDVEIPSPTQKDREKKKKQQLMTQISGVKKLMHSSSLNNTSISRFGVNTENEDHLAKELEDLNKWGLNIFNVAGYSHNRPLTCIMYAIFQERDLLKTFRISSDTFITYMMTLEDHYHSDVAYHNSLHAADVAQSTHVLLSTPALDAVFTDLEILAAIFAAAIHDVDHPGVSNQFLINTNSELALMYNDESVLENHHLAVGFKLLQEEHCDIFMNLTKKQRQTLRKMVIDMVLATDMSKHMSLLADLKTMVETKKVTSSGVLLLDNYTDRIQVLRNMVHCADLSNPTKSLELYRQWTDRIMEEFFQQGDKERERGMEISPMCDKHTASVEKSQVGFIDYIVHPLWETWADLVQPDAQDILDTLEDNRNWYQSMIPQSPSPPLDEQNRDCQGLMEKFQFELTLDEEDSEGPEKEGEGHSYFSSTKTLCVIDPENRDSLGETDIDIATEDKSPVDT
Procedure, shortened: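 ACTOne HEK293 cells carry a modified cAMP-gated CNG channel and express endogenous PDE4; plated 1000 cells/well, compounds up to 22.9 uM final. Membrane-potential dye fluorescence (ex 535/em 590) was read; parental cells received 10 uM forskolin + 100 uM RO 20-1724.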

[7] = biological target: Cytochrome P450 2D6 (Homo sapiens) (UniProt P10635); experiment: qHTS Assay for Inhibitors and Substrates of Cytochrome P450 2D6 (AID 891; active means well fitted curve in the direction sought with a large enough effect; inconclusive means small, poorly fitted or top-dose-only effect, or another doubt; inactive means no such curve, though single readings can be large; an effect the other way counts as inactive or inconclusive;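 further: luciferin methyl ether substrate demethylated by CYP2D6 with NADPH regeneration; potency means the concentration at half of the fitted maximal effect; nearly all actives have a fitted effect of over 60% in size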); settings: recombinant CYP2D6, luciferin-ME EGE luminescence; activity change, negative = inhibition: at 57.1 µM (top of the series)
Sequence of UniProt P10635 (P10635 whole entry, looked up): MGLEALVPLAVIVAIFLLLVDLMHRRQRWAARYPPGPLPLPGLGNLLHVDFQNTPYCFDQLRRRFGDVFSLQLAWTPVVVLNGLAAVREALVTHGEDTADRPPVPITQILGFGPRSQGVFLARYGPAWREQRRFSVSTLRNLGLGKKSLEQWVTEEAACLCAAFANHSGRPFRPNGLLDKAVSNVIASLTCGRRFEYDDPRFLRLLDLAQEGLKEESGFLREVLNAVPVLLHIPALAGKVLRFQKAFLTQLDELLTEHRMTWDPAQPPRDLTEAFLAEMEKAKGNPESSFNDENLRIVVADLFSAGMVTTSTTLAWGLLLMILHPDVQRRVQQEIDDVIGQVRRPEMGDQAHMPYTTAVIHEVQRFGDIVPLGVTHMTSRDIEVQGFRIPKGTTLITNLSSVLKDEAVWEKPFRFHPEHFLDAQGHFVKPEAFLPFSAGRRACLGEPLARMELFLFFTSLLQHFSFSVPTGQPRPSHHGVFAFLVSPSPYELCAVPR
Procedure, shortened: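 Luminescent read-out of luciferin formed by 5 nM human CYP2D6 demethylating 30 uM Luciferin-ME EGE (Km level) over 60 min at room temperature after NADPH regeneration addition. Data normalized to full inhibition by 1.43 uM quinidine.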

[8] = biological target: Cytochrome P450 2C19 (Homo sapiens) (UniProt P33261); experiment: qHTS Assay for Inhibitors and Substrates of Cytochrome P450 2C19 (AID 899; active means well fitted curve in the direction sought with a large enough effect; inconclusive means small, poorly fitted or top-dose-only effect, or another doubt; inactive means no such curve, though single readings can be large; an effect the other way counts as inactive or inconclusive; further: potency means the concentration at half of the fitted maximal effect; nearly all actives have a fitted effect of over 60% in size)
Sequence of UniProt P33261 (P33261 whole entry, looked up): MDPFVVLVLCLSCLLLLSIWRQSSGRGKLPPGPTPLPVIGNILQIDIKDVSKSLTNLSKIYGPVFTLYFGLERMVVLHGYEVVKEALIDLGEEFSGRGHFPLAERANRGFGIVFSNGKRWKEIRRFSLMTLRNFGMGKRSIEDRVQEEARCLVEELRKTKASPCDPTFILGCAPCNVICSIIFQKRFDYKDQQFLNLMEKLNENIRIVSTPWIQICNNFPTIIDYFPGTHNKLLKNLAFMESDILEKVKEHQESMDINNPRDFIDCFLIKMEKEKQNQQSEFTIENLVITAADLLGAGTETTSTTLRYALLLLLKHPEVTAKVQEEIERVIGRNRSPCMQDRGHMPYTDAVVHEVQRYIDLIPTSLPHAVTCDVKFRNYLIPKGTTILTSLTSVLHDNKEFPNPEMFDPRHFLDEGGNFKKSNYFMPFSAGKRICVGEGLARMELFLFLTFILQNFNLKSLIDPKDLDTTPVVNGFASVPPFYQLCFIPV
Procedure, shortened: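 5 nM human CYP2C19 with 10uM Luciferin-H EGE (at KM) in 50mM KPO4, compound preincubated 10 min at 37C, then NADPH regeneration for 60 min at 37C. Luciferin read by luminescence after detection reagent; normalized to 57uM ketoconazole as full inhibition.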
Tags describe the fitted curve by direction and shape.

Row | SMILES | activity change, negative = inhibition [1] | activity change, negative = inhibition [2] | Potency [3] | activation [4] | Potency [5] | Potency [6] | Potency [7] | Potency [8]
1 | O[C@H](C[C@@H]1CCCCN1)c1ccc2c(c1)oc1ccccc12 | inactive: 6.24% [at 7.69 µM] | inconclusive: -30.7% [inhibitor] [at 7.69 µM] | inconclusive: 7.94 µM [activator, partial curve] | inactive: -0.884% | – | – | – | –
2 | CS(=O)(=O)Nc1cccc(-c2nc(NCCN3CCOCC3)c3ccccc3n2)c1 | inactive: -21.3% [at 7.69 µM] | inconclusive: 40% [activator] [at 7.69 µM] | – | – | inconclusive: 50.1 µM [inhibitor, partial curve, poor fit] | – | – | –
3 | COc1ccc(C(=O)N2CCC3(CCCN(C(c4ccccc4)c4ccccc4)C3)CC2)cc1 | inconclusive: 92% [activator] [at 7.69 µM] | inconclusive: -56.7% [inhibitor] [at 7.69 µM] | – | – | – | inconclusive: 12.6 µM [activator, single point] | – | –
4 | COc1ccc2nc3cc(Cl)ccc3c(Nc3ccc(O)c(CN4CCN(C)CC4)c3)c2c1 | inconclusive: 16.5% [inhibitor] [at 7.69 µM] | inconclusive: -39.3% [inhibitor] [at 7.69 µM] | – | inactive: 26.1% | – | inactive | inconclusive: 3.98 µM [inhibitor, partial curve] | inconclusive: 2.51 µM [inhibitor, partial curve]
5 | O=C(N/N=C\c1cccc(O)c1)c1ccncc1 | inactive: -2.52% [at 7.69 µM] | inactive: -7.01% [at 7.69 µM] | – | inconclusive: 1.49% | – | inactive | inconclusive: 3.16 µM [inhibitor, partial curve] | –
